# According to paper PMC4336329 (PLoS ONE, 2015):
# The campaign covered roughly 310,000 compounds. About 14,000 (4.5%) showed an effect of 50% or more. The effect is printed as a negative number. The list shows a part of the results.
# Molecular target: human ether-à-go-go-related gene (hERG) potassium channel (human, UniProt Q12809)
# Assay: primary screen, population patch clamp on CHO cells stably expressing hERG
# 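Note: peak tail current of the secondary pulse compared with the same well before compound.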
# Chain of human ether-à-go-go-related gene (hERG) potassium channel (Q12809 whole entry, looked up): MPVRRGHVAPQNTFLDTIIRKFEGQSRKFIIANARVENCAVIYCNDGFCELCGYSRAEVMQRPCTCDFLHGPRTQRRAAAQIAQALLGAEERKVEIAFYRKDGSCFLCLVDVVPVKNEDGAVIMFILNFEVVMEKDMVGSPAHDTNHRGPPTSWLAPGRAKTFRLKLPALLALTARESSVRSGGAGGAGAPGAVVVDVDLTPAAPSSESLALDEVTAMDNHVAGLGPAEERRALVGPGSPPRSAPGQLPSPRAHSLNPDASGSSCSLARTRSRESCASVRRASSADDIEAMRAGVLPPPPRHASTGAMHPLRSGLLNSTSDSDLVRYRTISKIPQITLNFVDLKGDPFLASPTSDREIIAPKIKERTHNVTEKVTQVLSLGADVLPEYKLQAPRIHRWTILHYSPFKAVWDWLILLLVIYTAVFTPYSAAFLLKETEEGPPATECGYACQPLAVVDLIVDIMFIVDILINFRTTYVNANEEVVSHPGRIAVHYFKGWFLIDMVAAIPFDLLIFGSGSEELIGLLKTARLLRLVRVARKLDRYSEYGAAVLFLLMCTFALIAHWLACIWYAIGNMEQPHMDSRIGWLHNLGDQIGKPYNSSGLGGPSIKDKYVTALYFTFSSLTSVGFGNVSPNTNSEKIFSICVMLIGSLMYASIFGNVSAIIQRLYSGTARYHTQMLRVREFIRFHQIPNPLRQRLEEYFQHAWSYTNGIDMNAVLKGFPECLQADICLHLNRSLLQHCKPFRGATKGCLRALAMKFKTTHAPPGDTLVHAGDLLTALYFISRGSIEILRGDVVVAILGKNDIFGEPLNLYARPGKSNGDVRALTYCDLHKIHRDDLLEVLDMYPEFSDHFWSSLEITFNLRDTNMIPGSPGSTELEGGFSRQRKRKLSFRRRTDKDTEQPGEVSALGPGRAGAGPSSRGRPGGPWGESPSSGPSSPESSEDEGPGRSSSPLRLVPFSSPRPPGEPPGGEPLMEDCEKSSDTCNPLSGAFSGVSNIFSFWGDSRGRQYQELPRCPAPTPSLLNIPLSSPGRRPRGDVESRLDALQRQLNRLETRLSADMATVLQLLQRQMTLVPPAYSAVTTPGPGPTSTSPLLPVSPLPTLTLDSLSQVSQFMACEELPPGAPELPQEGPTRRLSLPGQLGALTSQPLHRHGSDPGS
row,Compound,"hERG current change (%, negative = inhibition) at 10uM"
1,COc1ccc(NC(=O)CCNC(=O)Cn2ccc3ccccc3c2=O)cc1Cl,18.1%
2,CC(OC(=O)Cn1cnc2c1c(=O)n(C)c(=O)n2C)C(=O)Nc1ccc(Cl)cc1 (stereo not shown),-36.6%
3,CCc1cc(C(=O)Cc2nc3ccccc3s2)c(O)cc1OCC(=O)O,12.1%
4,COc1ccccc1Nc1nnc(SCC(=O)NC2CC2)s1,-8.45%
5,COc1ccc(OC)c(C(c2nnnn2CCC(C)C)N2CCN(C(=O)c3ccco3)CC2)c1 (stereo not shown),-42.2%
6,CCc1nc2ccccc2n1CC(=O)N1CCN(S(=O)(=O)c2cccc(C(F)(F)F)c2)CC1,-47.3%
7,CCOc1ccc(NC(=O)c2ccc(NC(=O)c3ccc(CN4CCOCC4)cc3)cc2)cc1,9.33%
8,Cc1cccc(C(=O)NCc2nnc(SCC(=O)Nc3nncs3)n2C)c1,-5.67%
9,CC1CCCN(C(=O)CSCC(=O)N=c2sc3ccccc3n2C)C1 (stereo not shown),-9.28%
10,CC(C)CC(=O)c1c[nH]c(C(=O)NCc2ccccc2)c1,12.8%
11,CCCCCNC(=O)N[C@H](C(=O)O)C(C)C,-2.69%
12,Cc1cc(C)c(C)c(S(=O)(=O)N2CCN(C(=O)CCc3nc4ccccc4c(=O)[nH]3)CC2)c1C,-7.74%
13,COc1cccc(N2CCN(c3ncnc4c3[nH]c3ccc(F)cc34)CC2C)c1 (stereo not shown),-5.82%
14,O=C(C1CCCC1)N1CCN=C1SCc1cccc([N+](=O)[O-])c1,-19.3%
15,COc1ccc(CCNC(=O)C2CCN(S(=O)(=O)c3ccc(C)cc3)CC2)cc1,0.741%
16,COc1ccccc1P(=O)(Cc1ccccc1[N+](=O)[O-])c1ccccc1 (stereo not shown),-16.2%
17,[O-]/C(=C(\C(=S)NCc1ccc2c(c1)OCO2)[n+]1ccccc1)c1ccc(Cl)s1,20.7%
18,CCOc1nc(NCCO)nc(Nc2ccccc2F)n1,26.4%
19,Cc1noc(C)c1COc1ccc(C(=O)N2CCN(c3ccccc3O)CC2)cc1,-14.4%
20,CCCCCc1ccc(CC(=O)O)cc1,11.4%
21,CCCCc1c(C)nc2ccc(C(=O)OCC)cc2c1Cl,14.2%
22,Cc1ncoc1C(=O)N1CCCC(C(=O)c2ccc(-c3ccccc3)c(F)c2)C1 (stereo not shown),-18.2%

row,Compound,"hERG current change (%, negative = inhibition) at 10uM"
1,O=C(NCc1cccnc1)c1ccc(COc2ccccc2Br)o1,-14.1%
2,O=C(Nc1nc2ccccc2[nH]1)c1ccc(F)c(S(=O)(=O)N2CCOCC2)c1,-50.3%
3,Cc1ccc(N/N=C2/CCCNC2=O)cc1,15.6%
4,Cc1ccc(C(=O)N2CCCC2)cc1S(=O)(=O)Nc1ccccc1,-14.7%
5,CC(=O)N1N=C(c2ccccc2)CC1c1cccc([N+](=O)[O-])c1 (stereo not shown),-27.3%
6,O=C(Nc1ccc(N=Nc2ccccc2)cc1)c1ccc(Cl)cc1Cl,8.91%
7,Cc1cc(C)cc(N(CCC#N)C(=O)COC(=O)C2=COCCO2)c1,2.59%
8,CCO[C@@H]1OC(C(=O)Nc2ccccc2)=C[C@H](C)[C@H]1CCCO,1.08%
9,CCCc1nc2oc3c(=O)[nH]cnc3c2c2c1COC(C)(C)C2,11.9%
10,CC(Oc1cc(Cl)ccc1Cl)C(=O)N/N=C\c1ccnn1C (stereo not shown),-9.88%
11,COC(=O)c1ccsc1NC(=O)CSc1nnnn1-c1ccccc1SC,-8.01%
12,O=C(NNC(=O)c1cc(F)c(F)cc1Cl)c1ccc(NS(=O)(=O)c2cccs2)cc1,12.2%
13,COc1ccc(CNCc2cc(OC)ccc2OC)cc1.O=C(O)C(=O)O,-30.3%
14,O=[N+]([O-])c1ccc(CN2C=NS(=O)(=O)c3ccccc32)cc1,-13.5%
15,CCOc1ccccc1NC(=O)CSc1nnnn1Cc1ccccc1,-40.5%
16,O=C(NC1CCCC1)c1ccc(CSCc2ccccc2F)o1,-27.4%
17,CCc1nnc(NC(=O)c2ccc(S(=O)(=O)N(CCOC)CCOC)cc2)o1,8.22%
18,O=C(COC(=O)c1cccc(S(=O)(=O)N2CCc3ccccc32)c1)NC1CCS(=O)(=O)C1 (stereo not shown),-6.28%
19,O=C(CNCc1ccccc1)Nc1ccc(Cl)cc1,3.34%
20,O=C1CCCN1c1ncc(S(=O)(=O)c2ccc([N+](=O)[O-])cc2)s1,2.67%
21,COC(=O)C1CCN(c2cc(=O)n(C3CCCCC3)c(=O)[nH]2)CC1,-2.99%
22,CCc1ccc(CNCCSc2nnnn2C)cc1.Cl,-20.4%

row,Compound,"hERG current change (%, negative = inhibition) at 10uM"
1,CC(O)Cn1cnc2c1c(=O)n(C)c(=O)n2C (stereo not shown),0.931%
2,O=C(Cc1ccccc1)NNC1=NS(=O)(=O)c2ccccc21,8.68%
3,Cc1ccccc1NC(=S)N(CCN1CCCCC1)Cc1ccco1,-30.2%
4,O=C(NCCCN1CCOCC1)c1ccc(Cl)cc1[N+](=O)[O-],15.5%
5,COc1ccc(NC(=O)CN2C(=O)NC(C)(c3ccc(C)cc3)C2=O)c([N+](=O)[O-])c1 (stereo not shown),-5.16%
6,CC(NCc1ccncc1)C12CC3CC(CC(C3)C1)C2.Cl (stereo not shown),-14.3%
7,CN(c1ccccc1)S(=O)(=O)c1cccc(NC(=O)COc2ccccc2)c1,-19.7%
8,COC(=O)c1c(NC(=O)C2CCCCC2)sc2c1CCN(C(C)C)C2.Cl,-16.5%
9,O=C(Nc1nnc(C2CC2)o1)c1ccc(S(=O)(=O)N2CCCCC2)cc1,7.44%
10,C/C(=N\NC(=O)c1ccc(C)cc1)C1C(=O)c2ccccc2C1=O,15.8%
11,Cc1cccc2cc(C#N)c(N3CCN(C)CC3)nc12,-46%
12,CCCCn1c(SCc2nc3ccccc3s2)nc2cc(S(N)(=O)=O)ccc21,-37.5%
13,O=C(Nc1ncc(Cc2cccc(Cl)c2Cl)s1)c1ccc([N+](=O)[O-])cc1,-6.54%
14,Cc1ccc2cc(NC(=O)CC(CC(=O)O)c3ccccc3)ccc2n1 (stereo not shown),18.2%
15,COc1ccc(/C=C/C(=O)N(C)C2(C)CCS(=O)(=O)C2)cc1 (stereo not shown),-3.05%
16,O=[N+]([O-])c1cc(Cl)ccc1Sc1ccccn1,3.65%
17,CC(C)CCN1C(=O)c2ccc(C(=O)Nc3cccc(S(N)(=O)=O)c3)cc2C1=O,7.64%
18,COc1ccc(C(=O)Oc2cccnc2)cc1,-1.5%
19,CCOC(=O)c1c(C)n(C)c2ccc(O)c(CN3CCN(C)CC3)c12,-3.46%
20,COc1ccc(-c2nc(NC(=O)CSc3nnc4ccccn34)ns2)cc1,-2.77%
21,CCOc1ncccc1C(=O)OCC(=O)Nc1c(C)cc(C)cc1C,-1.23%
22,Cc1cccc(OCC(O)CN2CCN(c3ccccn3)CC2)c1C.Cl (stereo not shown),-45.5%

row,Compound,"hERG current change (%, negative = inhibition) at 10uM"
1,O=C(CSc1nnc(-c2cccs2)n1-c1ccccc1)c1ccc2c(c1)OCCO2,2.84%
2,Cc1ccc(NC(=O)CC2S/C(=N/N=C3/NC(=O)CS3)NC2=O)cc1 (stereo not shown),19.5%
3,O=c1[nH]c(/C=C/c2ccccc2)c([N+](=O)[O-])c(=O)[nH]1,5.45%
4,CN1CCC(=NNC(=O)c2ccco2)CC1,-3.61%
5,CC(=O)Nc1nc2c(s1)CCc1ccccc1-2,17.1%
6,CC(=O)NC(=S)Nc1ccc(-c2nc3ccc(C)cc3s2)cc1,13%
7,NS(=O)(=O)c1cccc(NC(=O)COC(=O)/C(=C/c2cccs2)c2cccs2)c1,-23%
8,CC(=O)N(C)c1ccc(NS(=O)(=O)Cc2ccccc2)cc1,-8.12%
9,CN(C)c1ccc(CNC(=O)CCS(=O)(=O)c2ccc3c(c2)oc(=O)n3C)cc1,9.08%
10,Cc1ccc(CN2CCN(/N=C/c3cccs3)CC2)cc1,-38%
11,CCCNC(=O)NC1CCCc2ccccc21 (stereo not shown),1.35%
12,NNC(=O)c1cnn(-c2ccccc2)c1-n1cccc1,0.869%
13,CC(C)CN(C(=O)CSc1nc2ccccc2o1)c1c(N)n(Cc2ccccc2)c(=O)[nH]c1=O,-11.8%
14,Cc1ccc(OCC(=O)Nc2ccccc2F)cc1,-0.548%
15,Cc1ccc2c(c1)N(C(=O)CCC(=O)N1CCc3ccccc3C1)CCO2,-20.4%
16,Cl.c1coc(C2=NCCc3ccccc32)c1,-9.79%
17,CCCS(=O)(=O)NCc1cn2c(C)csc2n1,0.533%
18,CC(=O)n1cc([C@H]2C=C(C(=O)N3CCOCC3)O[C@@H](OCCCCO)C2)c2ccccc21,-17.1%
19,CC(=O)Nc1ccc(NC(=O)CCCCCn2nnc3ccccc3c2=O)cc1,20.8%
20,Cc1ccccc1N/C(SCc1ccc(Cl)cc1)=C(/C#N)C(N)=O,-10.1%
21,COc1ccccc1C(=O)NC(=O)Cn1nc(C)c([N+](=O)[O-])c1C,-6.14%
22,CC(C)[C@H](NC(=O)c1ccccc1)C(=O)OCC(=O)NCc1ccc(F)cc1,14.4%
